# Test results reported in PubChem BioAssay AID504466 (National Center for Advancing Translational Sciences (NCATS), 2011).
# Among all 330,000 compounds or so, about 4,200 (1.3%) were called active. The shares of active, inactive and inconclusive entries below differ from those in the screen. Calls follow the shape of the dose curve; as a rule, active = well fitted activation curve with a large enough effect; inconclusive = small, poorly fitted or top-dose-only effect; inactive = no such curve, though single readings can be large or run the other way. Potencies beside an inconclusive call are fits to weak or partial responses and may not hold up.
# Assay: qHTS screen for small molecules that induce genotoxicity in human embryonic kidney (HEK293T) cells expressing luciferase-tagged ELG1; also: nearly all actives have a fitted effect of over 60% in size; as to activity change, positive = activation: % of control where 0% means no effect
# Conditions: HEK293T ELG1-luciferase reporter, luminescence, 16 h; series mostly up to 46 µM; activity change, positive = activation: at the top concentration
# Procedure, shortened: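 Screening used a luciferase reporter fused to human ELG1 in HEK293T cells. Luminescence was read on a CCD plate imager after 16 hr exposure and 30 min ONE-Glo incubation.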
# Potency is read from the fitted curve at half-maximal effect; tags tell the direction and shape of the fitted curve.
Compound,Potency,"activity change, positive = activation"
O=C(N/N=C\c1ccc(Oc2ccccc2)cc1)c1csnn1,"inconclusive: 20.6 µM [activator, single point]",
Cc1cc2c(Nc3ccc(O)cc3)ncnc2s1,"inconclusive: 18.3 µM [activator, single point]",
Oc1cccc(/C=N/NC(=S)Nc2cccnc2)c1O,"inconclusive: 23.1 µM [activator, single point]",
CC(=O)Nc1ccc(NC(=O)C(C)OC(=O)c2ccc(OCc3c(C)noc3C)cc2)cc1 (stereo not given),"inconclusive: 20.6 µM [activator, partial curve, poor fit]",
CC(C)(C)C1CCc2c(sc(NC(=O)c3cccs3)c2C(N)=O)C1 (stereo not given),"inconclusive: 6.51 µM [activator, partial curve, poor fit]",
O=C(Nc1ccc(N2CCOCC2)c(Cl)c1)c1cccnc1,active: 20.6 µM,
Cc1ccccc1NC(=O)C1Cc2ccccc2C(=O)O1 (stereo not given),"inconclusive: 23.1 µM [activator, partial curve, poor fit]",
COc1cc(OC)cc(C(=O)NNC(=O)c2ccccn2)c1,"inconclusive: 20.6 µM [activator, partial curve, poor fit]",
COC(=O)c1sc2nc3c(cc2c1N)CCCC3,"inconclusive: 2.59 µM [activator, full curve]",
COc1cccc(CN(C(=O)Cc2c[nH]c3ccccc23)C(C(=O)NC2CCCCC2)c2ccc(C)o2)c1 (stereo not given),,inactive: -6.8%
COc1cc(-c2noc(C)c2/C=C/c2ccc(N)cc2)cc(OC)c1OC,"inconclusive: 2.06 µM [activator, full curve]",
CCN(C)c1ccc(/C=N\n2nnnc2N)cc1,active: 9.2 µM,
N/C(=N\OC(=O)c1ccc([N+](=O)[O-])cc1)c1ccc(Br)cc1,"inconclusive: 9.2 µM [activator, partial curve, poor fit]",
Cc1ccc(-c2cnc(-c3ccccc3C(=O)O)o2)cc1,"inconclusive: 14.6 µM [activator, partial curve, poor fit]",
COCCn1c(-c2ccc(Br)cc2)csc1=Nc1cccnc1,,inactive: -8.28%
CCOc1ccc(C(=O)Nc2ccc(C(=O)N3CCOCC3)cc2)c(OCC)c1,,inactive: -0.96%
CCOC(=O)N1CCC(NC(=O)CS(=O)Cc2nc(-c3ccc(C)cc3)oc2C)CC1 (stereo not given),,inactive: -6.33%
Cn1cccc1-c1nc2ccccc2[nH]1,"inconclusive: 20.6 µM [activator, partial curve]",
Cc1cnc2ncc3sccc3c2c1,,inactive: -3.92%
Nc1nc(Nc2cccc(F)c2)nc2ccccc12,"inconclusive: 6.51 µM [activator, partial curve, poor fit]",
COCC(C)n1c(C)cc(C(=O)CSc2nnc(N)s2)c1C (stereo not given),active: 8.2 µM,
CN(C)/C=C/C(=O)c1ccc(Cl)c([N+](=O)[O-])c1,,inactive: -0.0205%
COc1ccc(N(CC(=O)Nc2ccc(C)cc2)S(=O)(=O)c2c(C)noc2C)cc1,,inactive: -7.46%
O=C(O)c1cccc(NC(=O)c2cc(-c3cccc(Cl)c3)nc3ccccc23)c1,"inconclusive: 25.9 µM [activator, partial curve, poor fit]",
CCCNC(=O)COC(=O)c1ccccc1OCC(=O)Nc1ccc(Br)cc1,,inactive: 7.45%

Compound,Potency,"activity change, positive = activation"
CC(C(=O)O)c1ccc(N2Cc3ccccc3C2=O)cc1 (stereo not given),,inactive: 10.7%
Cc1ccc(-c2nc(SCC(=O)c3c(N)n(C)c(=O)n(C)c3=O)n[nH]2)cc1,"inconclusive: 16.4 µM [activator, partial curve, poor fit]",
O=C(CSc1ncc(-c2ccccc2)nn1)NCc1ccco1,,inactive: -2.65%
CC(C)C(=O)Nc1nc2cc3c(cc2s1)OCCO3,"inconclusive: 2.31 µM [activator, full curve]",
Cc1ccc(S(=O)(=O)NC(C)(C)CN2CCc3ccccc3C2)cc1,,inactive: -2.88%
Cc1ccc(O)c(NC(=O)c2cc(-c3ccco3)on2)c1,active: 20.6 µM,
O=C(CCl)NN=C(c1ccccc1)c1ccccc1,,inactive: -11.8%
C#CCOCCOCCOCCNc1nc(N2CCN(C(=O)[C@H](CO)n3cc([C@@H](N)C(C)C)nn3)CC2)nc(N2CCN(C(=O)[C@H](CCC(=O)O)n3cc([C@@H](N)[C@H](C)CC)nn3)CC2)n1,,inactive: 3.78%
COC(=O)c1sc(S(=O)(=O)N2CCN(c3ccccc3F)CC2)c(C(=O)OC)c1C,,inactive: -2.31%
COc1ccccc1C(=O)O/N=C(\N)c1ccc(Cl)cc1,"inconclusive: 11.6 µM [activator, partial curve]",
CCOC(=O)/C(C#N)=C\c1ccc(CC)s1,"inconclusive: 18.4 µM [activator, partial curve, poor fit]",
COc1ccccc1Nc1nnc(SCC(=O)Nc2nc(-c3ccc(F)cc3)cs2)s1,"inconclusive: 32.6 µM [activator, partial curve, poor fit]",
O=C(c1cccc(-c2nnc(-c3ccccc3)o2)c1)N1CCCCCC1,"inconclusive: 13 µM [activator, partial curve]",
CNC(=O)c1cc2ccc(OC)cc2oc1=O,"inconclusive: 29.1 µM [activator, partial curve, poor fit]",
COc1cccc(C(=O)Nc2ccc3nc(N4CCOCC4)cc(C)c3c2)c1,,inactive: -26%
c1ccc(-c2cc(N3CCCCC3)ncn2)cc1,active: 14.6 µM,
Cc1cc(NC(=O)c2ccc(F)cc2)n(C)n1,,inactive: 4.56%
Cn1cccc1C(=O)OCc1ccc(C(C)(C)C)cc1,"inconclusive: 3.55 µM [activator, single point]",
COc1ccc(NC(=O)c2oc3ccccc3c2C)c(OC)c1,"inconclusive: 18.4 µM [activator, partial curve]",
CCn1nnc(NC(=O)c2cccc(-c3cc4ccccc4oc3=O)c2)n1,"inconclusive: 7.31 µM [activator, partial curve, poor fit]",
CC1CCc2c(C(=O)Nc3cccc(-c4nn[nH]n4)c3)csc2C1 (stereo not given),"inconclusive: 18.3 µM [activator, single point]",
COc1ccc(NC(=O)c2sc(SC)nc2N)cc1,active: 18.4 µM,
O=C(CCC(=O)n1ncc2ccccc21)N1CCCCC1,,inactive: 0.469%
C=CCNC(=S)N1CCC(C(=O)c2ccc(Cl)cc2)CC1,,inactive: -10.1%
CCc1ccccc1NC(=O)c1sc2nc(C)cc(C)c2c1N,,inactive: 2.26%

Compound,Potency,"activity change, positive = activation"
Cc1ccc(NC(=O)c2csc3c2CCCC3)cc1,"inconclusive: 2.31 µM [activator, full curve]",
Cc1cc(-c2nnc(CCC(=O)N(CC3CCC3)CC3CCCO3)o2)no1 (stereo not given),"inconclusive: 23.1 µM [activator, partial curve, poor fit]",
COc1ccc2oc(=Nc3cc(F)ccc3F)c(C(N)=O)cc2c1,"inconclusive: 4.11 µM [activator, single point]",
Cc1c(Cc2ccccc2)sc(/N=C/c2ccc3ccccc3c2)c1C(N)=O,"inconclusive: 20.6 µM [activator, partial curve, poor fit]",
Cc1cccc(NC(=O)COc2cccc3c2CCN(C)C3=O)c1C,,inactive: -2.05%
COc1cc(/C=C/c2ccc3cccc(OC)c3n2)c(OC(C)=O)c([N+](=O)[O-])c1,,inactive: -7.87%
Cn1nc(C(=O)Nc2sc3c(c2C#N)CCCC3)ccc1=O,"inconclusive: 20.6 µM [activator, partial curve, poor fit]",
N/C(=N\OC(=O)c1ccc2ccccc2c1)c1ccncc1,active: 4.61 µM,
CCCCn1c(SCc2nc3ccccc3s2)nc2ccccc2c1=O,,inactive: 7.38%
C/C(=N/NC(=O)c1ccccc1)c1ccc(NC(=O)C(F)(F)F)cc1,"inconclusive: 20.6 µM [activator, partial curve, poor fit]",
N#C/C(=N\Nc1c(Cl)cccc1Cl)C(=O)NN,"inconclusive: 22.4 µM [activator, partial curve, poor fit]",
CCc1ccc(-c2nc(CS(=O)CC(=O)O)c(C)o2)cc1 (stereo not given),"inconclusive: 23.1 µM [activator, partial curve, poor fit]",
COc1ccc(-c2csc(/N=C/N(C)C)n2)cc1OC,"inconclusive: 23.1 µM [activator, partial curve, poor fit]",
COc1ccc(CCNC(=O)c2ccc(CS(=O)(=O)c3ccc(Cl)cc3)o2)cc1OC,,inactive: -16.9%
COc1ccc(C2OC3=C(Nc4cc(C)c(C)cc4N3)C2=O)cc1 (stereo not given),"inconclusive: 20.6 µM [activator, partial curve]",
COc1cc(O)c2c(=O)cc(-c3ccccc3)oc2c1,"inconclusive: 23.1 µM [activator, partial curve, poor fit]",
CC1=C/C(=N\NC(=S)NCCc2ccccc2)CC(C)(C)C1,,inactive: 13.4%
COc1ccc(N=c2oc3ccccc3cc2C(=O)Nc2ccccn2)cc1OC,"inconclusive: 23.1 µM [activator, single point]",
O=C(NCc1nc2ccccc2[nH]1)c1cccs1,"inconclusive: 23.1 µM [activator, partial curve, poor fit]",
CC(C)n1cc(/C=N/NC(=O)COc2cccc3cccnc23)c2ccccc21,,inactive: -5.27%
Cc1sc(C(=O)Nc2ccc3ccccc3c2)cc1CC(=O)O,,inactive: 15.3%
O=C(COc1cc(Cl)c(Cl)cc1Cl)NC(=O)NC1CCCC1,"inconclusive: 32.6 µM [activator, partial curve, poor fit]",
CC(C)(C)NC(=O)C(c1ccc(O)cc1)N(C(=O)CCC(=O)Nc1nccs1)c1ccc(F)cc1 (stereo not given),,inactive: -12.6%
Cc1cc(/C=c2\sc3nc4ccccc4n3c2=O)c(C)n1-c1ccc(C(=O)O)cc1,,inactive: 4.73%
Cn1c2ccccc2c(=O)c2cc(C#Cc3ccccn3)ccc21,"inconclusive: 14.6 µM [activator, partial curve]",
